{"source": "PubChem BioAssay AID624171", "about": "(National Center for Advancing Translational Sciences (NCATS), 2012)", "note": "Screen size: about 410,000 compounds; about 1,200 (0.29%) were called active. This list was built around the results that the source calls inconclusive (neither active nor inactive); the mix of calls is not that of the screen. Calls come from the whole dose curve; as a rule, active = well fitted activation curve with a large enough effect; inconclusive = small, poorly fitted or top-dose-only effect; inactive = flat fitted curve, though single readings scatter. Where the call is inconclusive, the potency comes from a doubtful curve fit. Potency is the fitted concentration of half-maximal effect; tags give direction and shape of the fitted curve."}
{"test": "qHTS of Nrf2 Activators; note: nearly all actives have a fitted effect of over 65% in size; for activation: % of control where 0% means no effect", "conditions": "AREc32 ARE-luciferase reporter (MCF7-derived line), luminescence, 24 h; series mostly up to 46.1 µM", "source_text": "Many diseases have some form of oxidative stress injury and ties to inflammation, causing a host of problems for the patient. The antioxidant response element (ARE) plays an important role in alleviating the harmful effects of oxidative stress. The antioxidant response element (ARE) is a transcriptional regulatory element involved in the activation of genes coding for a number of antioxidant proteins and detoxifying enzymes. These enzymes work in concert to protect tissues from oxidative insults and chemical toxicities in human hepatocytes and immune cells. The protective effects of ARE activation are primarily triggered through Nrf2 (NF-E2-related factor) binding to and activating AREs. It is known that Nrf2 controls the production of over 250 antioxidant and detoxification proteins (Hu et al., 2006), thereby protecting tissues by increasing cellular antioxidant content and suppressing inflammatory signaling pathways. The transcription factor Nrf2 is a central link between oxidative chemicals, such as phenolic antioxidants and electrophilic compounds, and the activation of ARE. Nrf2 levels are constitutively low as a consequence of its interaction with Keap1, which targets its degradation (Zipper and Mulcahy, 2002). Electrophiles react with key cysteine residues in Keap1, releasing Nrf2 and allowing its translocation to the nucleus. Once within the nucleus, Nrf2 complexes with coactivators such as p300, and binds to the AREs to induce gene transcription of cytoprotective enzymes, resulting in the prevention of toxicity. Activation of Nrf2 protects tissues by increasing cellular antioxidant content and suppressing inflammatory signaling pathways. Identifying novel and potent Nrf2 activators by using the AREc32 cell line to detect ARE activation by small molecules will lead to the identification and development of probes to study protective pathways in multiple tissues. These specific probes are essential to study the ARE pathway, and eventually to determine whether this pathway does activate genes that could protect against a host of diseases, including cardiovascular diseases, obesity, diabetes, Alzheimer's, and Parkinson's disease.\nThis project's aim is to identify novel and potent Nrf2 activators by using the AREc32 cell line to detect ARE activation by small molecules, which will lead to the identification and development of probes to study the ARE pathway.\nNIH Chemical Genomics Center [NCGC]\nNIH Molecular Libraries Probe Centers Network [MLPCN]\nAssay Submitter (PI): Curtis Klaassen, University of Kansas Medical Center\n5 uL of 1000 cells/well of AREc32_Fluc cells are seeded into 1536-well plate in OPTI-MEM medium with 5% FBS. The plates are incubated overnight at 37 deg C with 5% CO2. Then through pin tool transfer, 23 nL of compounds are added to each well before a 24 hr incubation at 37 deg C with 5% CO2. After the addition of 2.5 uL of Steady-Glo. the plates are kept at RT for 30 min, before they are read on the ViewLux."}
{"molecule": "Cc1ccccc1NC(=O)CCl", "Potency": "inconclusive: 20 µM [activator, single point]"}
{"molecule": "N#CC(C#N)=Cc1ccc(C=C(C#N)C#N)cc1", "Potency": "inconclusive: 25.1 µM [activator, single point]"}
{"molecule": "CCC(=NCc1ccc2c(c1)OCO2)c1c(O)n(C)c(=O)n(C)c1=O", "Potency": "inactive"}
{"molecule": "Cc1ccc(N2C(=O)NC(=O)/C(=C/C=C/c3ccco3)C2=O)cc1", "Potency": "inconclusive: 25.1 µM [activator, single point]"}
{"molecule": "CC(C)(C)c1[nH]nc2c1C(c1ccoc1)C(C#N)=C(N)O2", "note": "(stereo not given)", "Potency": "inconclusive: 35.5 µM [activator, single point]"}
{"molecule": "CCOC(=O)[C@]12Cc3c(cc(OC)c(OC)c3OC)[C@H]1N(C(C)C)C(=O)c1cc(OC)ccc12", "Potency": "inactive"}
{"molecule": "O=C(Nc1ccc(Cl)c(Cl)c1)c1ccco1", "Potency": "inconclusive: 2.82 µM [activator, full curve, poor fit]"}
{"molecule": "O=c1[nH]c(=S)[nH]c(O)c1N=Nc1ccc(SC(F)F)cc1", "Potency": "active: 15.8 µM"}
{"molecule": "C=CCn1cc(C=C2C(=O)N(C)C(=O)N(C)C2=O)c2ccccc21", "Potency": "inconclusive: 17.8 µM [activator, single point]"}
{"molecule": "C[N+](C)(C)CC1CCCC(C[N+](C)(C)C)C1=O", "note": "(stereo not given)", "Potency": "active: 11.2 µM"}
{"molecule": "COC(=O)C1=C(c2ccc(F)cc2OCc2ccccc2)C[C@@H]2CC[C@H]1N2C(=O)NCc1ccccc1Cl", "Potency": "inactive"}
{"molecule": "Cc1nn(CC(C)C)c(Cl)c1C(=O)O", "Potency": "inactive"}
{"molecule": "COCCCNC(=O)c1c(NC(=O)c2ccco2)n(Cc2ccccc2)c2nc3ccccc3nc12", "Potency": "active: 15.8 µM"}
{"molecule": "Nc1c(C(=O)NCc2ccco2)c2nc3ccccc3nc2n1Cc1ccc(F)cc1", "Potency": "active: 17.8 µM"}
{"molecule": "O=C1NC(=O)C(=Cc2ccccc2OCCOc2ccc([N+](=O)[O-])cc2)C(=O)N1", "Potency": "inactive"}
{"molecule": "C=C(C)C(Cc1c(OC)ccc(C(=O)/C=C/c2ccc(O)cc2)c1O)OO", "note": "(stereo not given)", "Potency": "inconclusive: 25.1 µM [activator, single point]"}
{"molecule": "CCC(=O)[C@@H](C)[C@@H](O)[C@H](C)C[C@@H](C)C1OC(=O)C[C@@]2(O)CC=C(C)C(O2)C(C)=CCCC[C@H](O[C@H]2C[C@@H](OC(N)=O)[C@H](O)[C@@H](C)O2)C=C[C@H](C)C[C@H]1C", "note": "(stereo not given in full)", "Potency": "inactive"}
{"molecule": "CCC(C)C1NC(=O)C2CCCN2C(=O)C(CC(C)C)OC(=O)CCNC(=O)C(C)N(C)C(=O)C(C(C)C)N(C)C1=O", "note": "(stereo not given)", "Potency": "inactive"}
{"molecule": "Cc1cc(NC(=O)CCl)on1", "Potency": "inconclusive: 20 µM [activator, single point]"}
{"molecule": "COc1ccccc1-n1c(O)c(/C=C2\\C=Nc3ccccc32)c(=O)[nH]c1=O", "Potency": "inactive"}
{"molecule": "Cn1c2ccccc2c2c(C(=O)N3CCC4(CC3)OCCO4)cn(C3CCCCC3)c(=O)c21", "Potency": "inactive"}
{"molecule": "O=c1c2ccccc2nc(/C=C/c2ccccc2F)n1-c1ccccc1O", "Potency": "inconclusive: 11.2 µM [activator, partial curve]"}
{"molecule": "CN1C(=O)NC(=O)C(N=Nc2ccc(Cl)cc2)C1=O", "note": "(stereo not given)", "Potency": "inconclusive: 20 µM [activator, single point]"}
{"molecule": "Cc1cccc(-n2c(/C=C/c3ccc([N+](=O)[O-])o3)nc3ccccc3c2=O)c1", "Potency": "inconclusive: 3.55 µM [activator, partial curve]"}
{"molecule": "Cc1cccc(N2C(=O)NC(=O)/C(=C\\c3cccn3-c3ccc(Cl)cc3)C2=O)c1", "Potency": "inconclusive: 22.4 µM [activator, single point]"}
{"molecule": "COc1ccc(Oc2cc(NC(=O)c3nn(C)cc3[N+](=O)[O-])cc([N+](=O)[O-])c2)cc1", "Potency": "inconclusive: 5.62 µM [activator, single point]"}
{"molecule": "Cc1ccc2c(c1Cl)NC(C(=O)O)C1CC(Sc3ccccc3[N+](=O)[O-])C(Cl)C21", "note": "(stereo not given)", "Potency": "inactive"}
{"molecule": "O=C1NC(=O)N(Cc2ccccc2)C(=O)/C1=C/C=C/c1ccco1", "Potency": "inconclusive: 17.8 µM [activator, single point]"}
{"molecule": "CCn1c(=O)oc2cc(NC(=O)CCl)ccc21", "Potency": "inconclusive: 2.82 µM [activator, full curve, poor fit]"}
{"molecule": "O=c1c2ccccc2sn1-c1ccc(Cl)cc1", "Potency": "inconclusive: 17.8 µM [activator, single point]"}
{"molecule": "CC(=O)Nc1ccccc1C(=O)OCC(=O)c1ccccc1Cl", "Potency": "inconclusive: 17.8 µM [activator, single point]"}
{"molecule": "C[C@]12CC[C@H](N)CC1=CCC1C2CC[C@@]2(C)C1CC[C@@H]2O", "note": "(stereo not given in full)", "Potency": "inactive"}
{"molecule": "COC(=O)C1=C(c2ccccc2OCc2ccccc2)C[C@@H]2CC[C@H]1N2C", "Potency": "inactive"}
{"molecule": "O=C(NC1CN2CCC1CC2)c1cc(Cl)c([N+](=O)[O-])c2nc[nH]c12", "note": "(stereo not given)", "Potency": "inconclusive: 22.4 µM [activator, single point]"}
{"molecule": "N#Cc1c(Cl)nc(Cl)c2c1CCN(Cc1ccccc1)C2", "Potency": "inconclusive: 17.8 µM [activator, single point]"}
{"molecule": "Cc1ccc(Oc2cnn(-c3ccccc3)c(=O)c2Br)cc1", "Potency": "inconclusive: 25.1 µM [activator, single point]"}
{"molecule": "Cc1ccccc1-n1c(O)c(/C=C2/C(c3ccccc3)=Nc3ccccc32)c(=O)[nH]c1=O", "activation": "inactive: 5.7% [at 9.22 µM]"}
{"molecule": "O=c1c2ccccc2nc(/C=C\\c2ccccc2[N+](=O)[O-])n1-c1ccccc1O", "Potency": "inconclusive: 15.8 µM [activator, partial curve, poor fit]"}
{"molecule": "Cc1cc2ccccn2c1C(C[N+](=O)[O-])c1c(F)cccc1Cl", "note": "(stereo not given)", "Potency": "inconclusive: 3.16 µM [activator, single point]"}
{"molecule": "Cc1cc(C)cc(N2C(=O)NC(=O)/C(=C\\C=C\\c3ccco3)C2=O)c1", "Potency": "inconclusive: 31.6 µM [activator, single point]"}
{"molecule": "COCC(C)NC(=O)c1cc2cccc([N+](=O)[O-])c2[nH]1", "note": "(stereo not given)", "Potency": "inconclusive: 17.8 µM [activator, single point]"}
{"molecule": "N=C1c2ccccc2CN1c1cccc([N+](=O)[O-])c1", "Potency": "inconclusive: 15.8 µM [activator, single point]"}
{"molecule": "O=c1[nH]c(O)c(N=Nc2ccc(Cl)c(S(=O)(=O)Nc3ccccc3Cl)c2)c(=O)[nH]1", "Potency": "inconclusive: 35.5 µM [activator, single point]"}
{"molecule": "ClC1=C(Cl)C(Cl)=C(Cl)C1=C/C=C/c1ccccc1", "Potency": "inconclusive: 3.16 µM [activator, full curve, poor fit]"}
{"molecule": "Cc1nc2ccccc2c(=O)n1-c1ccccn1", "Potency": "inconclusive: 10 µM [activator, partial curve]"}
{"molecule": "Cc1cccc(C(=O)Nc2nnc(SCC(=O)NCc3ccco3)s2)c1", "Potency": "active: 3.16 µM"}
{"molecule": "COc1ccc2nc(-c3ccc(CN4CCC(n5c(=O)[nH]c6ccccc65)CC4)cc3)c(-c3ccccc3)nc2c1", "Potency": "inactive"}
{"molecule": "O=C1NC(=O)N(c2ccccc2)C(=O)/C1=C/C=C/c1ccco1", "Potency": "inconclusive: 35.5 µM [activator, single point]"}
{"molecule": "CNC(=S)N1CC2CC(C1)c1cccc(=O)n1C2", "note": "(stereo not given)", "Potency": "inactive"}
{"molecule": "CC1(C)CC(=O)C2=C(C1)OC(N)=C([N+](=O)[O-])C2c1ccc(C#N)s1", "note": "(stereo not given)", "Potency": "inconclusive: 20 µM [activator, single point]"}
{"molecule": "S=C=Nc1ccccn1", "Potency": "inconclusive: 11.2 µM [activator, partial curve]"}
{"molecule": "CNC(=O)c1cccn(Cc2cc(C(F)(F)F)cc(C(F)(F)F)c2)c1=O", "Potency": "inactive"}
{"molecule": "O=C(CSc1nc(-c2cccs2)nc2cc(=O)[nH]n12)Nc1ccc(F)cc1", "Potency": "inconclusive: 22.4 µM [activator, single point]"}
{"molecule": "COc1ccc(OC(=O)N2C/C(=C/c3ccccc3)C(=O)/C(=C\\c3ccccc3)C2)cc1", "Potency": "inconclusive: 15.8 µM [activator, single point]"}
{"molecule": "C=C1C(=O)O[C@@H]2C[C@@H](C)[C@H]3C=CC(=O)[C@]3(O)C[C@@H]12", "Potency": "inconclusive: 8.91 µM [activator, partial curve]"}
{"molecule": "Cc1ccc(C[n+]2c(-c3ccc(C)cc3)cc(-c3ccc(C)cc3)cc2-c2ccc(C)cc2)cc1", "Potency": "inactive"}
{"molecule": "CCc1cccc(CC)c1N(COC)C(=O)CCl", "Potency": "inconclusive: 35.5 µM [activator, single point]"}
{"molecule": "COc1ccc(C2=NCc3nnc(C)n3-c3ccc(Cl)cc32)cc1Cl", "Potency": "inconclusive: 15.8 µM [activator, single point]"}
{"molecule": "O=C(CCN1CCCCC1)Nc1ccc(Br)cc1C(=O)c1ccccc1", "Potency": "inactive"}
{"molecule": "CCN(CC)c1ccc(N=Cc2c(O)n(-c3cc(OC)ccc3OC)c(=O)[nH]c2=O)cc1", "Potency": "inconclusive: 20 µM [activator, single point]"}
{"molecule": "COc1cccc(N2C(=O)NC(=O)/C(=C/c3ccc([N+](=O)[O-])s3)C2=O)c1", "Potency": "inconclusive: 17.8 µM [activator, single point]"}
{"molecule": "Cc1ccc(-c2nn3c(C)nnc3c3ccccc23)cc1S(=O)(=O)NCCO", "Potency": "inconclusive: 28.2 µM [activator, single point]"}
{"molecule": "Fc1ccccc1CCNCc1cccc(Cl)c1Cl", "Potency": "inactive"}
{"molecule": "O=C(c1ccccc1)C(CN1CCCC1)c1ccccc1", "note": "(stereo not given)", "Potency": "inconclusive: 4.47 µM [activator, single point]"}
{"molecule": "CC1(C)C(C(=O)N2CCN(C(=O)c3ccccc3)CC2)C1(C)C", "Potency": "inactive"}
{"molecule": "CCc1ccc(OCC(=O)N2CCN(CCc3ccncc3)CC2)cc1", "Potency": "inactive"}
{"molecule": "Cc1cc(N(CCCl)CCCl)ccc1C=NNC(=O)Cc1cc(=O)oc2cc(O)ccc12", "Potency": "inactive"}
{"molecule": "COc1ccc(/C=C/C2=CCN(C)CC2)cc1", "Potency": "inactive"}
{"molecule": "CCC(C)N1C(=O)/C(=C/c2ccc3c(c2)CCN3CCCCl)C(=O)NC1=S", "note": "(stereo not given)", "Potency": "inactive"}
{"molecule": "Cc1ccnc(SCc2nc3ccccc3s2)n1", "Potency": "active: 12.6 µM"}
